Source: PMC6834667
Results are given in words; binding and its absence hold for the method and conditions named. In cells and extracts the contact can be indirect. Some binding calls cover weakened binding; strength is not graded here. For some of these results: Tags and fused reporters may be left off the sequences shown.

Amino acid sequences for entries named in this document (tags omitted). A change or cut given only in a name is not applied to a line headed by its entry.
UniProt Q14145: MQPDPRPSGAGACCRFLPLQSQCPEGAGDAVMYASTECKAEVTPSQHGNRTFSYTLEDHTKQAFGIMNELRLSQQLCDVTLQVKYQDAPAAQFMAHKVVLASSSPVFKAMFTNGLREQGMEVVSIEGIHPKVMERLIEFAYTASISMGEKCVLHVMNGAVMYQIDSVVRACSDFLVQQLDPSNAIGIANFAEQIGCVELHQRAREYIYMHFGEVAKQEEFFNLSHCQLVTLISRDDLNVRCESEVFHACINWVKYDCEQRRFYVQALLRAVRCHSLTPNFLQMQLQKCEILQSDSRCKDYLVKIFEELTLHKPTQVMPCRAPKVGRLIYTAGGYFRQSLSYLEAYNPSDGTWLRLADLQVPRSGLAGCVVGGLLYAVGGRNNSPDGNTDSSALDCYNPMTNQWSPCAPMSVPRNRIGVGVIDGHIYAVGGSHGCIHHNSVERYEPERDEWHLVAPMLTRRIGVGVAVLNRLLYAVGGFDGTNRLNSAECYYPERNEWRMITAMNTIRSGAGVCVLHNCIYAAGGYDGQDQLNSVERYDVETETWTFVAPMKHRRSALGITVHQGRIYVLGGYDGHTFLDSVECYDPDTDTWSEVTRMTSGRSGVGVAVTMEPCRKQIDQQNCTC
UniProt Q16236: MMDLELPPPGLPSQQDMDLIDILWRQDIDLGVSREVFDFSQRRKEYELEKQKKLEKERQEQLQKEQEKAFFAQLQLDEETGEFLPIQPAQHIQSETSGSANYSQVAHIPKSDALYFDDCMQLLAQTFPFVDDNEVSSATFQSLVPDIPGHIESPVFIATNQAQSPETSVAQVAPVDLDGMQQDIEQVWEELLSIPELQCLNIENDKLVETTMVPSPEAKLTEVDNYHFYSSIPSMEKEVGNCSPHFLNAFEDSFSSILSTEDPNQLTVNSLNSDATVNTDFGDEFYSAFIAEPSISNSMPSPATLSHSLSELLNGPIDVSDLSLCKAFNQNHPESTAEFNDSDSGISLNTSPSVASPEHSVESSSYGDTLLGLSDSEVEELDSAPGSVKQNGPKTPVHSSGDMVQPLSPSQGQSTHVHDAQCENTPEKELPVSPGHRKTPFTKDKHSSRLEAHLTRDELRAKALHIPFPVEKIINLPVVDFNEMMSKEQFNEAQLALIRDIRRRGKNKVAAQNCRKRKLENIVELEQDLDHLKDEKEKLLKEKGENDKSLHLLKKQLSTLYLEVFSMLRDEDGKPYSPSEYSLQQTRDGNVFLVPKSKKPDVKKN

B1: Myc-Nestin (641-1621) (domain or fragment, UniProt P48681 641-1621)
chain: GNLETFLFPGTENQELVSSLQENLESLTALEKENQEPLRSPEVGDEEALRPLTKENQEPLRSLEDENKEAFRSLEKENQEPLKTLEEEDQSIVRPLETENHKSLRSLEEQDQETLRTLEKETQQRRRSLGEQDQMTLRPPEKVDLEPLKSLDQEIARPLENENQEFLKSLKEESVEAVKSLETEILESLKSAGQENLETLKSPETQAPLWTPEEINQGAMNPLEKEIQEPLESVEVNQETFRLLEEENQESLRSLGAWNLENLRSPEEVDKESQRNLEEEENLGKGEYQESLRSLEEEGQELPQSADVQRWEDTVEKDQELAQESPPGMAGVENEDEAELNLREQDGFTGKEEVVEQGELNATEEVWIPGEGHPESPEPKEQRGLVEGASVKGGAEGLQDPEGQSQQVGAPGLQAPQGLPEAIEPLVEDDVAPGGDQASPEVMLGSEPAMGESAAGAEPGPGQGVGGLGDPGHLTREEVMEPPLEEESLEAKRVQGLEGPRKDLEEAGGLGTEFSELPGKSRDPWEPPREGREESEAEAPRGAEEAFPAETLGHTGSDAPSPWPLGSEEAEEDVPPVLVSPSPTYTPILEDAPGPQPQAEGSQEASWGVQGRAEALGKVESEQEELGSGEIPEGPQEEGEESREESEEDELGETLPDSTPLGFYLRSPTSPRWDPTGEQRPPPQGETGKEGWDPAVLASEGLEAPPSEKEEGEEGEEECGRDSDLSEEFEDLGTEAPFLPGVPGEVAEPLGQVPQLLLDPAAWDRDGESDGFADEEESGEEGEEDQEEGREPGAGRWGPGSSVGSLQALSSSQRGEFLESDSVSVSVPWDDSLRGAVAGAPKTALETESQDSAEPSGSEEESDPVSLEREDKVPGPLEIPSGMEDAGPGADIIGVNGQGPNLEGKSQHVNGGVMNGLEQSEEVGQGMPLVSEGDRGSPFQEEEGSALKTSWAGAPVHLGQGQFLKFTQREGDRESWSSGED
B2: Myc-Nestin (1295-1621) (domain or fragment, UniProt P48681 1295-1621)
chain: LPDSTPLGFYLRSPTSPRWDPTGEQRPPPQGETGKEGWDPAVLASEGLEAPPSEKEEGEEGEEECGRDSDLSEEFEDLGTEAPFLPGVPGEVAEPLGQVPQLLLDPAAWDRDGESDGFADEEESGEEGEEDQEEGREPGAGRWGPGSSVGSLQALSSSQRGEFLESDSVSVSVPWDDSLRGAVAGAPKTALETESQDSAEPSGSEEESDPVSLEREDKVPGPLEIPSGMEDAGPGADIIGVNGQGPNLEGKSQHVNGGVMNGLEQSEEVGQGMPLVSEGDRGSPFQEEEGSALKTSWAGAPVHLGQGQFLKFTQREGDRESWSSGED

Legend:
[1] = target: Nestin-ESGA (1417E replaced by 1417A) (UniProt P48681); test: co-IP; Myc-Nestin or its mutants transfected into NSCLC cells; whole-cell lysates in IP lysis buffer immunoprecipitated with anti-Myc and Protein G magnetic beads, overnight at 4 °C; blotted for endogenous proteins
[2] = target: Myc-Nestin (UniProt P48681); test: as above
[3] = target: Flag-tagged Keap1 (UniProt Q14145); test: co-IP; truncated Myc-tagged Nestin proteins co-expressed with Flag-tagged Keap1 in HEK293FT cells; immunoprecipitation with Protein G beads and an anti-Flag antibody
[4] = target: Kelch-like ECH-associated protein 1 (Keap1) G333C, endogenous in A549 (human (endogenous in A549)) (UniProt Q14145); test: co-IP; endogenous proteins; NSCLC whole-cell lysates immunoprecipitated with anti-Keap1, blotted with anti-Nestin, anti-Keap1 and anti-Nrf2; also control or Nestin-knockdown cells treated with 10 μM MG132 for 4 h
[5] = target: Kelch-like ECH-associated protein 1 (Keap1), wild type, endogenous in H1299 (human (endogenous in H1299)) (UniProt Q14145); test: as above

| Molecule | binding [2] | binding [3] | also measured |
| --- | --- | --- | --- |
| Kelch-like ECH-associated protein 1 (Keap1) G333C, endogenous in A549 (from UniProt Q14145 1-624) | binds | – | binding [1]: no binding |
| Kelch-like ECH-associated protein 1 (Keap1), wild type, endogenous in H1299 (from UniProt Q14145 1-624) | binds | – | binding [1]: no binding |
| Myc-Nestin full-length (N1-1621) (from UniProt P48681 1-1621) | – | binds | – |
| NF-E2-related factor 2 (Nrf2), endogenous (from UniProt Q16236 1-605) | no binding | – | – |
| Nestin (endogenous) (from UniProt P48681 1-1621) | – | – | binding [4]: binds; binding [5]: binds |
| B1 | – | binds | – |
| B2 | – | binds | – |
